Results reported in PubChem BioAssay AID463173 (ICCB-Longwood Screening Facility, Harvard Medical School, 2010).
Among all 52,000 compounds or so, about 1,700 (3.3%) were called active. Cut-off read from the data, not from the text of the source: active = survival mostly below about 52% (no sharp cut-off); inactive = mostly above about 56%. The list shows a part of the results.

tested on: Wild type; test: S. aureus survival, RN4220 and DeltatarO strains – OD600, teichoic acid synthesis inhibitors, primary screen (AID 463173); conditions: S. aureus RN4220 wild type/DeltatarO growth, OD600, 18 h, hits give low values, screened at 18.75 µg/mL (by protocol)

Structure (SMILES)	survival
O=C(NCc1ccc(F)cc1)C1CCN(C(=O)c2cnn(-c3ccccc3)c2-n2cccc2)CC1	inactive: 80%
COc1ccc2oc(=O)c(C(=O)N(C)Cc3cccnc3)cc2c1	inactive: 88%
Cc1ccccc1NC(=O)CN(C)S(=O)(=O)c1cccc2nsnc12	inactive: 79%
COc1cccc(CNC(=O)CCC(=O)N2CC3CCCN3c3ccccc32)c1 (centres undefined)	inactive: 65%
CCC(Cn1nnc2ccccc2c1=O)NC(=O)Nc1cccc(Cl)c1 (centres undefined)	inactive: 82%
CCc1cccc(NC(=O)Cn2c(=O)n(CC3CCC(C(=O)NCCc4ccccc4)CC3)c(=O)c3ccccc32)c1 (centres undefined)	inactive: 126%
COc1ccc(-c2[nH]ncc2C(=O)NCc2ccc(F)cc2)cc1	inactive: 69%
Cc1ccc(C(=O)N2CCN(c3ccccc3F)CC2)cc1NC(=O)c1nsc2ccccc12	inactive: 87%
CN(C(=O)Nc1cn(C)c(=O)c2ccccc12)c1ccccc1	active: -6%
COc1ccc(N2C(=O)C(CC(=O)Nc3ccc(F)cc3)N(CCC3=CCCCC3)C2=O)cc1 (centres undefined)	inactive: 84%
COc1ccccc1CCNC(=O)Cc1c(C)c2c(cc(C)c3c(C)coc32)oc1=O	inactive: 108%
O=C(NC1CC(=O)N(c2cccc(F)c2)C1)C1CCCCC1 (centres undefined)	inactive: 72%
COc1ccc(Cl)cc1NC(=O)CN1c2ccccc2S(=O)(=O)c2ccccc21	inactive: 59%
CCCCn1c(C)nc2ccccc21	inactive: 99%
O=C(CSC1=Nc2ccccc2N=C(c2ccc(F)cc2)C1)Nc1cc(F)ccc1F	inactive: 99%
CCCCNc1cc(NC2CCCCC2)c2c3c(onc13)-c1ccccc1C2=O	inactive: 117%
COCCCNC(=O)c1c(NC(=O)c2cc(=O)c3cc(C)c(C)cc3o2)sc2c1CCCC2	inactive: 119%
COc1ccccc1CCNC(=O)c1cc2ccccn2n1	inactive: 152%
CCCN1C(=O)CN(C2CCCCCC2)C(=O)C1c1ccc(OCC)c(OC)c1 (centres undefined)	inactive: 120%
CCn1cc2nc(SCc3cccc(OC)c3)n(Cc3ccc(Cl)cc3)c(=O)c2n1	active: 10%
CCCOc1ccc(CNC(=O)C2CCN(c3nc4ccccc4nc3C(F)(F)F)CC2)cc1	inactive: 59%
Cc1ccc(SCC(=O)Nc2cccc(-c3nc4cc(Cl)ccc4o3)c2C)cc1	inactive: 80%
CC1=C(C(=O)Nc2ccccc2Cl)C(c2cccs2)n2ncnc2N1 (centres undefined)	inactive: 95%

Structure (SMILES)	survival
O=C(CCC1N=C2c3ccccc3N=C(SCc3cccc(F)c3)N2C1=O)NC1CCCCC1 (centres undefined)	inactive: 110%
COC(=O)c1cc2sccc2n1Cc1ccccc1	inactive: 28%
COc1cccc(NS(=O)(=O)c2ccc3[nH]cc(C(=O)NC4CCCCC4)c(=O)c3c2)c1	inactive: 50%
Cc1cc(NS(=O)(=O)c2ccc(NC(=O)COc3c(C)cc(Br)cc3C)cc2)no1	inactive: 133%
O=S(=O)(NCc1ccccc1)c1ccc2[nH]c3c(c2c1)CCCCC3	inactive: 99%
Cc1c(CNC(C)c2ccccc2)c(C(=O)O)c(C)n1Cc1c(F)cccc1Cl (centres undefined)	inactive: 76%
CCOC(=O)C1CCCN(C(=O)c2cc3c(=O)n(C)c4ccccc4c3s2)C1 (centres undefined)	inactive: 50%
CCOc1ccc(-c2c(C)nn3c(C)c(C(=O)NCC(C)c4ccccc4)cnc23)cc1OCC (centres undefined)	inactive: 72%
CCCCNS(=O)(=O)c1ccc(S(=O)(=O)n2cnc3ccccc32)cc1	inactive: 112%
CCc1ccc(N2C(=O)CS(=O)(=O)C23C(=O)N(Cc2ccccc2)c2ccccc23)cc1 (centres undefined)	inactive: 65%
COc1cc(-c2noc(-c3nnn(-c4ccc(Cl)cc4)c3C)n2)cc(OC)c1OC	inactive: 81%
Cc1ccc(-n2nc(CO)c(C(=O)NCCc3ccccc3)n2)cc1C	inactive: 114%
CCCc1nn(C)c2c(=O)[nH]c(-c3cc(S(=O)(=O)N4CCN(C)CC4)ccc3OCC)nc12	inactive: 104%
O=C(Nc1ccccc1C(F)(F)F)c1noc2c1CCCCC2	inactive: 64%
CC(C)(C)c1nc(NCc2cccs2)c2nnn(Cc3ccccc3Cl)c2n1	inactive: 104%
CCc1cccc(C)c1Nc1c(-c2ccc(N3CCOCC3)cc2)nc2ncccn12	inactive: 77%
CC(=O)c1ccc(NC(=O)C2CCCN(S(=O)(=O)c3cn(C)cn3)C2)cc1 (centres undefined)	inactive: 87%
CCOC(=O)c1cc2c(=O)n3ccccc3nc2n(Cc2ccco2)c1=NC(=O)c1ccccc1OC	inactive: 64%
Cc1ccc(NC(=O)C2CCCN(c3nnc(C)c4c(C)n(-c5ccccc5)nc34)C2)cc1Cl (centres undefined)	inactive: 73%
Cc1c2cnn(CC(=O)Nc3ccc(F)cc3F)c(=O)c2c(C)n1Cc1cccc(Cl)c1	inactive: 124%
Cc1ccc(-c2nnn(CC(=O)N(Cc3cccs3)C(C(=O)NCC3CCCO3)c3ccc(F)cc3)n2)o1 (centres undefined)	inactive: 121%
COc1ccc(-n2nc3c(c2NC(=O)C(=O)N2CCN(C)CC2)CSC3)cc1	inactive: 84%
CC(C)(C)C(=O)CNS(=O)(=O)c1ccc(S(=O)(=O)N2CCCC2)cc1	inactive: 99%

Structure (SMILES)	survival
Cc1cc(C)cc(OCC(=O)Nc2cccc(-c3nc4ccccc4[nH]3)c2)c1	inactive: 50%
O=C(Cn1c(=O)n(-c2ccc(F)cc2)c(=O)c2sccc21)Nc1cccc(C(F)(F)F)c1	inactive: 72%
CC1CCCC(C)N1CCNC(=O)c1cn(C(C)c2ccccc2F)nn1 (centres undefined)	inactive: 104%
Cc1ccc(-n2nc3c(=O)n(C(C)C(=O)O)nc(C)c3c2C)cc1 (centres undefined)	inactive: 86%
COc1cccc(CNC(=O)Cn2c(=O)oc3cc(S(=O)(=O)N4CCC(C)CC4)ccc32)c1	inactive: 132%
O=C(O)c1ccc(N=NN2CCCCC2)cc1	inactive: 104%
CCOC(=O)N1CCN(C(=O)CN(Cc2ccc(F)cc2)S(=O)(=O)c2ccc(C)cc2)CC1	inactive: 104%
COc1ccc(Cn2c(C(=O)O)c(CNCCc3ccccc3Cl)c3ccc(C)cc32)cc1	inactive: 59%
CN(C)CCCNc1c2c(nc3cc(-c4cccc(F)c4)nn13)CCC2	inactive: 106%
CCC(=O)N1CCc2cc(S(=O)(=O)CCC(=O)NCc3ccc(F)cc3)ccc21	inactive: 87%
c1ccc2oc(SCc3nc4c5c6c(sc5ncn4n3)CCCC6)nc2c1	inactive: 112%
Cc1cccc(NC(=O)CSc2nnc(-c3ccoc3C)n2CC(C)C)c1C	inactive: 107%
CC(C)NC(=O)c1cc2c(Cl)nc3ccccc3c2s1	inactive: 80%
Cc1cc(O)c(C(=O)c2cnc3c(c2)COc2ccccc2-3)cc1Cl	inactive: 64%
Cc1ccc(CNC(=O)c2ccc3c(c2)N(Cc2cccc(Cl)c2)C(=O)CS3)cc1	inactive: 70%
CCn1c(N2CCN(C(=O)Nc3ccc(Cl)c(C(F)(F)F)c3)CC2)nc2ccccc21	active: 0%
CCOc1ccc(NC(=O)Cn2cc(C(=O)c3ccc(C)c(C)c3)c(=O)c3cc(F)ccc32)cc1	inactive: 89%
CCC1(C)Cc2ccccc2/C(=C/C(=O)N2CCCCC2)N1 (centres undefined)	inactive: 102%
Cc1ccc(Cl)cc1NC(=O)Cn1c(=O)n(CCC(=O)N2CCc3ccccc3C2)c(=O)c2ccccc21	inactive: 132%
CCOc1ccc2nc(N3CCCC(C(=O)NCCc4ccc(SC)cc4)C3)sc2c1 (centres undefined)	inactive: 114%
COc1cc(NC(=O)CSc2nc3nc(C)c(Cc4ccccc4)c(C)n3n2)cc(OC)c1	inactive: 121%
O=C(NCc1ccccc1)C1CCCN(C(=O)Nc2ccccc2)C1 (centres undefined)	inactive: 104%
O=S(=O)(NC1=NCCS1)c1ccc(N=NN2CCCCC2)cc1	inactive: 114%

Structure (SMILES)	survival
CCN(c1ccc(C)cc1C)S(=O)(=O)c1nnc(NC(=O)CC(C)C)s1	inactive: 79%
COc1cccc(NC(=O)CSc2cc(C)[nH]c(=O)n2)c1	inactive: 68%
CCN(CC)c1nn2c(=O)c(C(=O)NCc3cccc(OC)c3OC)cnc2s1	inactive: 72%
NC(CC(=O)OC1CCCCC1)C(=O)OC1CCCCC1 (centres undefined)	inactive: 116%
Cc1cccc(NCN2C(=O)S/C(=C/c3ccc(N(C)C)cc3)C2=O)c1	inactive: 115%
COCCCNC(=O)c1sc2nc(C)c(C(=O)Nc3ccc(Cl)cc3)c(-c3ccc(Br)cc3)c2c1N	inactive: 77%
CC1N=C2c3ccccc3N=C(SCC(=O)NCc3ccc(Cl)cc3)N2C1=O (centres undefined)	inactive: 68%
CCS(=O)(=O)N1CC(=O)N(c2cccc(C)c2C)C(C)(C(=O)NC2CCCCCC2)C1 (centres undefined)	inactive: 69%
O=S(=O)(NCc1ccco1)c1cccc(S(=O)(=O)N2CCCCC2)c1	inactive: 116%
Cc1cc2c(C)cc(=O)oc2c2c1NCCC2	inactive: 104%
COc1cccc(-c2n[nH]c3c2C(c2cccc(O)c2)N(C)C3=O)c1 (centres undefined)	inactive: 80%
Cc1nc(SCC(=O)Nc2ccccc2Cl)cc(-c2ccccc2)n1	inactive: 87%
Cc1c2cnn(-c3ccccc3)c(=O)c2c(C)n1CC(=O)N1CCN(c2cccc(Cl)c2)CC1	inactive: 92%
COc1ccc(CNC(=O)c2cnn(-c3ccc(OC)cc3)c2C2CCN(C(=O)OC(C)(C)C)CC2)cc1	inactive: 76%
COCCCNc1ncnc2ccc(Br)cc12	inactive: 114%
CN1CCN(C(=O)c2ccc(N(C)S(C)(=O)=O)cc2)CC1	inactive: 112%
Cc1ccccc1OCC(=O)NCC(c1ccc(Cl)cc1)N1CCOCC1 (centres undefined)	inactive: 74%
Cc1cccc2c1-c1sc(C(=O)Nc3ccccc3C(N)=O)cc1CO2	inactive: 87%
CCC(=O)Nc1cc(-c2nc3cc(C)cc(C)c3o2)ccc1C	inactive: 78%
CCCCOc1ccc(S(=O)(=O)Nc2ccc(-c3ccc(N4CCCCC4)nn3)cc2)cc1	inactive: 73%
